Source: PubChem BioAssay AID1347120 (National Center for Advancing Translational Sciences (NCATS), 2019)
Where “and” joins values, the source holds several entries; their conditions need not be identical. Equal values may be shown once. Among all 390,000 compounds or so, about 930 (0.24%) were called active. The inconclusive results got no clear call from the source; some entries with a clear call stand among them for comparison. Calls follow the shape of the dose curve; as a rule, active = well fitted activation curve with a large enough effect; inconclusive = small, poorly fitted or top-dose-only effect; inactive = no such curve, though single readings can be large or run the other way. Potencies of inconclusive entries are doubtful fits and often do not repeat.

experiment: qHTS for Suppressors of FUS Proteinopathy: Primary screen using FUS-linked yeast assay; also: nearly all actives have a fitted effect of over 55% in size;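 as to growth rescue (activation): plate controls were DMSO vehicle for no effect and reference control for full effect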; conditions: S. cerevisiae FUS-expressing, OD600, 24 h; Potency: growth rescue; growth rescue (activation): at 76.6 µM (top of the series)
Summary of the method: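 Cultures pregrown in 2.5% raffinose medium are shifted to minimal medium containing 2% galactose to express toxic FUS. Compounds are tested at several concentrations. After 24hr at 30C, growth is quantified at 600 nm absorbance.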
Potency is read from the fitted curve at half-maximal effect; tags tell the direction and shape of the fitted curve.

Row | Compound | growth rescue (activation) | Potency
1 | CC(O)CNc1nc2c(c(=O)n(C)c(=O)n2C)n1Cc1cccc(C(F)(F)F)c1 (centres undefined) | inconclusive: 62% [activator] | –
2 | CCC(C)C(=O)Nc1nc(C)c(-c2csc(Nc3ccc(Cl)cc3)n2)s1 (centres undefined) | – | inconclusive: 31.6 µM [activator, partial curve]
3 | CCCN1CCc2c(sc(NC(=O)c3ccc(S(=O)(=O)N(C)c4ccccc4)cc3)c2C(N)=O)C1 | – | inconclusive: 7.94 µM [activator, full curve]
4 | COc1cc2c(cc1OC)C(c1cccs1)N(C(=O)c1cccc(S(=O)(=O)N(C)C)c1)CC2 (centres undefined) | – | inconclusive: 44.7 µM [activator, single point]
5 | FC(F)(F)c1ccc(C2[C@H]3CN(Cc4ccc(-c5ccccc5)cc4)[C@H](c4ccccc4)C34CC2(c2cccnc2)C4)cc1 (some centres undefined) | – | inconclusive: 25.1 µM [activator, single point]
6 | COc1ccc(-c2nc3cc(C)ccn3c2NC2CCCCC2)cc1SC1CCCCC1 | – | inconclusive: 30.6 µM [activator, partial curve] and inconclusive: 28.2 µM [activator, single point]
7 | CCN(CC(=O)Nc1ccccc1C(F)(F)F)C(=O)c1cc2c(s1)CCCCC2 | – | inconclusive: 50.1 µM [activator, single point]
8 | COc1cc2cc(CNc3ccccc3)c(=O)n(CC(=O)Nc3ccc(C)c(Cl)c3)c2cc1OC | inactive: 21.8% | –
9 | CCc1ccc([C@H]2C[C@H]3[C@H]4C(=O)N(c5ccccc5)C(=O)[C@H]4CC(=O)[C@@H]3CN2S(=O)(=O)c2ccc(C)cc2)cc1 | – | inconclusive: 10 µM [activator, partial curve]
10 | COc1ccc(Cl)cc1NC(=S)N(Cc1ccc(C(=O)O)cc1)Cc1ccc(OC)c(OC)c1 | – | inconclusive: 50.1 µM [activator, single point]
11 | O=C1CCSC2(C(=O)N(Cc3ccc(F)cc3)c3ccccc32)N1c1ccc(Cl)cc1 (centres undefined) | inactive: 40.7% | –
12 | COc1ccc(Cl)cc1NC(=O)N1CCN(Cc2cc(=O)n3nc(-c4ccccc4)sc3n2)CC1 | inactive: 8.63% | –
13 | CC1=C(C(=O)OCc2ccc3c(c2)OCO3)C(c2ccc(F)cc2)NC(=O)N1 (centres undefined) | inactive: 6.84% | –
14 | CCN1C(=O)[C@H]2[C@@H](c3ccc(-c4cccc(Cl)c4)c(OC)c3)N[C@@](CC(C)C)(C(=O)OC)[C@H]2C1=O | – | inconclusive: 3.98 µM [activator, full curve]
15 | COc1ccccc1CNC(=O)C(C)n1c(=O)cc(-c2ccccc2)c2c(C)nn(C)c21 (centres undefined) | – | inconclusive: 28.2 µM [activator, single point]
16 | c1ccc(-c2nc(NCc3ccco3)c3ccccc3n2)cc1 | – | inconclusive: 28.2 µM [activator, partial curve, poor fit]
17 | N#Cc1c(-c2ccncc2)c2c([nH]c1=S)CCCC2 | inactive: 11.7% | –
18 | O=C(Nc1ccc(-c2nc3ccccc3o2)cc1)c1ccc(N2C(=O)C3C4C=CC(C4)C3C2=O)cc1 (centres undefined) | inactive: 3.92% | –
19 | CCCOc1ccc(/C=N/NC(=O)CN2CCCCC2)cc1OCC | inactive: -14.2% | –
20 | CCCCNC(=O)C1C(c2ccccc2)=Nc2ccccc2N1C(=O)c1ccc(C(F)(F)F)cc1 (centres undefined) | – | inconclusive: 17.8 µM [activator, partial curve, poor fit]

Row | Compound | growth rescue (activation) | Potency
21 | O=C(/C=C/c1ccccc1)NC(NC(=S)Nc1ccc(C(=O)O)cc1)C(Cl)(Cl)Cl (centres undefined) | – | inconclusive: 35.5 µM [activator, single point]
22 | O=C(Nc1cc(Cl)ccc1F)C1CCCN(c2nnc(-n3cccc3)s2)C1 (centres undefined) | inactive: 3.68% | –
23 | Cc1ccc(S(=O)(=O)N2CCN(C(=O)COC(=O)CCOc3ccccc3C)CC2)cc1 | – | inconclusive: 25.1 µM [activator, partial curve, poor fit]
24 | C#Cc1ccc(CN2CCC(C(=O)Nc3ccc(Oc4ccccc4)nc3)CC2)cc1 | – | inconclusive: 6.31 µM [activator, full curve]
25 | C=C1c2cccc(O)c2C(=O)C2C(=O)[C@]3(O)C(=O)C(C(N)=O)C(=O)[C@@H](N(C)C)[C@@H]3[C@@H](O)[C@H]12 (some centres undefined) | inactive: -5.74% | –
26 | COc1ccc(C)cc1NC(=O)C(OC(=O)CNC(=O)c1ccc(Oc2ccccc2)cc1)c1ccccc1 (centres undefined) | – | inconclusive: 25.1 µM [activator, single point]
27 | Cc1ccc2oc3c(c(=O)c2c1)C(c1cccc(Br)c1)N(Cc1ccco1)C3=O (centres undefined) | inactive: -6.8% | –
28 | COc1ccc(C2c3cc(OC)c(OC)cc3CC(=O)N2c2ccc(C)c(F)c2)cc1 (centres undefined) | – | inconclusive: 39.8 µM [activator, single point]
29 | COc1ccccc1CNC(=O)CCn1c(=O)c2cccn2c2cccnc21 | inactive: -19.1% | –
30 | O=C(NC1CCCCCC1)c1cc(S(=O)(=O)N2CCOCC2)ccc1N1CCCCC1 | – | inconclusive: 50.1 µM [activator, single point]
31 | O=C(N/N=C/c1cccc(Oc2ccccc2)c1)c1ccncc1 | inactive: 1.82% | –
32 | COc1ccc(OC)c(Cc2nnc(CCC(=O)NCc3nc4ccccc4s3)o2)c1 | – | inconclusive: 50.1 µM [activator, single point]
33 | CCc1cccc(C)c1NC(=O)Cn1nc(C)c2nn(-c3ccc(Cl)cc3)c(C)c2c1=O | – | inconclusive: 44.7 µM [activator, partial curve, poor fit]
34 | CCCCCCCCCCCCCCCC[n+]1ccccc1 | – | inconclusive: 44.7 µM [activator, single point] and inconclusive: 31.6 µM [activator, single point]
35 | OCCN1CCN(c2nccn3ccnc23)CC1 | inactive: -7.08% | –
36 | O=C(CCCN1C(=O)S/C(=C/C=C/c2ccccc2)C1=O)Nc1ccc(C(=O)O)cc1 | – | inconclusive: 35.5 µM [activator, partial curve, poor fit]
37 | O=C(CSc1nc2ccccc2n1Cc1ccccc1)N/N=C/c1ccco1 | – | inconclusive: 15.8 µM [activator, partial curve, poor fit]
38 | O=c1nc2c(O)cccn2c2c1c(=O)[nH]c1ccccc12 | inactive: 37.5% | –
39 | NC(=O)CC(NC(=O)Cc1cccc2ccccc12)c1ccc(NCCOc2ccccc2)c([N+](=O)[O-])c1 (centres undefined) | – | inconclusive: 35.5 µM [activator, single point]
